Assay results: the supplement of paper PMC4967469

Experiments:
[1] = compound: C=CCc1cccc(/C=N/NC(=O)CN2CCN(Cc3ccccc3)CC2)c1O [PAC-1]; experiment: Viability of human cancer cell lines after 72 h of drug (GDSC screen); details: top dose 2.56 µM
Description: (§1)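 Human cancer cell lines in 384-well plates, medium with 10% serum, drug for 72 h over a 256-fold dose range (nine 2-fold or five 4-fold steps up to the top dose). Adherent lines were fixed and stained with the nucleic acid dye Syto60, suspension lines read with resazurin; signal relative to control wells, capped at 0 and 100%. One two-parameter sigmoid per drug and line, fitted in a mixed model over all curves with the slope shared within a line.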

[2] = compound: NC(=O)[C@@H](CCC(F)(F)F)N(Cc1ccc(-c2ncon2)cc1F)S(=O)(=O)c1ccc(Cl)cc1 [BMS-708163]; experiment: as above; details: top dose 5 µM; screen: GDSC drug entry 1072; top dose inferred
Description: as §1

| Cell Line | AUC [1] | pIC50 [1] | AUC [2] | pIC50 [2] |
| --- | --- | --- | --- | --- |
| NCI-H441 (lung adenocarcinoma, adherent) | 0.883 | < 5.59 | 0.979 | < 5.30 |
| MKN28 (stomach, adherent) | 0.858 | 5.66 | 0.965 | < 5.30 |
| EFO-21 (ovary, adherent) | 0.904 | < 5.59 | 0.964 | < 5.30 |
| GAMG (glioma, adherent) | 0.978 | < 5.59 | 0.917 | < 5.30 |
| ME-180 (cervix, adherent) | 0.98 | < 5.59 | 0.965 | < 5.30 |
| SCC-9 (head and neck, adherent) | 0.979 | < 5.59 | 0.94 | < 5.30 |
| HOS (osteosarcoma, adherent) | 0.884 | 5.70 | 0.991 | < 5.30 |
| SW900 (lung squamous cell carcinoma, adherent) | 0.953 | < 5.59 | 0.98 | < 5.30 |
| SU-DHL-5 (B-cell lymphoma, suspension) | 0.686 | 6.34 | 0.971 | < 5.30 |
| SK-CO-1 (large intestine, adherent) | 0.985 | < 5.59 | 0.882 | 5.32 |
| NCI-H2085 (lung adenocarcinoma, adherent) | 0.935 | < 5.59 | 0.987 | < 5.30 |
| NCI-H1703 (lung adenocarcinoma, adherent) | 0.973 | < 5.59 | 0.969 | < 5.30 |
| ASH-3 (thyroid, adherent) | 0.915 | < 5.59 | 0.986 | < 5.30 |
| CHP-212 (neuroblastoma, adherent) | 0.987 | < 5.59 | 0.957 | < 5.30 |
| H2461 (mesothelioma, adherent) | 0.978 | < 5.59 | 0.974 | < 5.30 |
| MKN45 (stomach, adherent) | 0.751 | 5.98 | 0.915 | < 5.30 |
| BICR78 (head and neck, adherent) | 0.983 | < 5.59 | 0.918 | < 5.30 |
| LS-180 (large intestine, adherent) | 0.967 | < 5.59 | 0.975 | < 5.30 |
| OVTOKO (ovary, adherent) | 0.77 | 5.90 | 0.946 | < 5.30 |
| HO-1-u-1 (head and neck, adherent) | 0.967 | < 5.59 | 0.979 | < 5.30 |
| HuP-T3 (pancreas, adherent) | 0.873 | < 5.59 | 0.971 | < 5.30 |
| NCI-H2023 (lung adenocarcinoma, adherent) | 0.931 | < 5.59 | 0.98 | < 5.30 |
| HSC-2 (head and neck, adherent) | 0.97 | < 5.59 | 0.923 | < 5.30 |
| HT-3 (cervix, adherent) | 0.936 | < 5.59 | 0.971 | < 5.30 |
| HuH-7 (liver, adherent) | 0.985 | < 5.59 | 0.961 | < 5.30 |

| Cell Line | AUC [1] | pIC50 [1] | AUC [2] | pIC50 [2] |
| --- | --- | --- | --- | --- |
| PANC-10-05 (pancreas, adherent) | 0.924 | < 5.59 | 0.962 | < 5.30 |
| OSC-19 (head and neck, adherent) | 0.986 | < 5.59 | 0.984 | < 5.30 |
| NCI-H196 (small cell lung carcinoma, adherent) | 0.943 | < 5.59 | 0.988 | < 5.30 |
| HCC-56 (large intestine, adherent) | 0.946 | < 5.59 | 0.981 | < 5.30 |
| HCC1143 (breast, adherent) | 0.877 | < 5.59 | 0.955 | < 5.30 |
| MFE-280 (endometrium, adherent) | 0.94 | < 5.59 | 0.982 | < 5.30 |
| NCI-H2052 (mesothelioma, adherent) | 0.902 | < 5.59 | 0.902 | < 5.30 |
| KP-2 (pancreas, adherent) | 0.872 | < 5.59 | 0.986 | < 5.30 |
| Ca9-22 (head and neck, adherent) | 0.981 | < 5.59 | 0.935 | < 5.30 |
| KYSE-410 (oesophagus, adherent) | 0.787 | 5.92 | 0.983 | < 5.30 |
| EGI-1 (biliary tract, adherent) | 0.971 | < 5.59 | 0.953 | < 5.30 |
| SAT (head and neck, adherent) | 0.942 | < 5.59 | 0.926 | < 5.30 |
| PCI-30 (head and neck, adherent) | 0.982 | < 5.59 | 0.887 | < 5.30 |
| K2 (melanoma, adherent) | 0.977 | < 5.59 | 0.982 | < 5.30 |
| NCI-H1734 (lung adenocarcinoma, adherent) | 0.953 | < 5.59 | 0.985 | < 5.30 |
| HuO9 (osteosarcoma, adherent) | 0.984 | < 5.59 | 0.912 | < 5.30 |
| CAL-27 (head and neck, adherent) | 0.978 | < 5.59 | 0.94 | < 5.30 |
| LOU-NH91 (lung squamous cell carcinoma, adherent) | 0.979 | < 5.59 | 0.981 | < 5.30 |
| A204 (rhabdomyosarcoma, adherent) | 0.952 | < 5.59 | 0.936 | < 5.30 |
| U-2-OS (osteosarcoma, adherent) | 0.977 | < 5.59 | 0.97 | < 5.30 |
| MOG-G-UVW (glioma, adherent) | 0.967 | < 5.59 | 0.971 | < 5.30 |
| PANC-02-03 (pancreas, adherent) | 0.957 | < 5.59 | 0.975 | < 5.30 |
| MOG-G-CCM (glioma, adherent) | 0.97 | < 5.59 | 0.972 | < 5.30 |
| KYSE-70 (oesophagus, adherent) | 0.98 | < 5.59 | 0.977 | < 5.30 |
| FADU (head and neck, adherent) | 0.988 | < 5.59 | 0.982 | < 5.30 |

| Cell Line | AUC [1] | pIC50 [1] | AUC [2] | pIC50 [2] |
| --- | --- | --- | --- | --- |
| CAL-33 (head and neck, adherent) | 0.984 | < 5.59 | 0.964 | < 5.30 |
| JHH-1 (liver, adherent) | 0.973 | < 5.59 | 0.97 | < 5.30 |
| H2804 (mesothelioma, adherent) | 0.92 | < 5.59 | 0.982 | < 5.30 |
| WM35 (melanoma, adherent) | 0.844 | 5.73 | 0.976 | < 5.30 |
| BPH-1 (prostate, adherent) | 0.969 | < 5.59 | 0.933 | < 5.30 |
| MDA-MB-175-VII (breast, adherent) | 0.977 | < 5.59 | 0.986 | < 5.30 |
| SCC-4 (head and neck, adherent) | 0.971 | < 5.59 | 0.913 | < 5.30 |
| KYSE-140 (oesophagus, adherent) | 0.824 | 5.75 | 0.983 | < 5.30 |
| Detroit562 (head and neck, adherent) | 0.988 | < 5.59 | 0.942 | < 5.30 |
| SW1783 (glioma, adherent) | 0.935 | < 5.59 | 0.988 | < 5.30 |
| STS-0421 (soft tissue, adherent) | 0.967 | < 5.59 | 0.914 | < 5.30 |
| OVKATE (ovary, adherent) | 0.968 | < 5.59 | 0.979 | < 5.30 |
| H2722 (mesothelioma, adherent) | 0.939 | < 5.59 | 0.92 | < 5.30 |
| TE-11 (oesophagus, adherent) | 0.964 | < 5.59 | 0.855 | 5.46 |
| BxPC-3 (pancreas, adherent) | 0.845 | 5.66 | 0.95 | < 5.30 |
| BT-483 (breast, adherent) | 0.952 | < 5.59 | 0.976 | < 5.30 |
| NCI-H1048 (small cell lung carcinoma, adherent) | 0.988 | < 5.59 | 0.96 | < 5.30 |
| A2780 (ovary, semi-adherent) | 0.906 | < 5.59 | 0.927 | < 5.30 |
| KP-4 (pancreas, adherent) | 0.987 | < 5.59 | 0.98 | < 5.30 |
| YAPC (pancreas, adherent) | 0.981 | < 5.59 | 0.961 | < 5.30 |
| HCC1395 (breast, adherent) | 0.914 | < 5.59 | 0.977 | < 5.30 |
| U251 (glioma, adherent) | 0.987 | < 5.59 | 0.985 | < 5.30 |
| ML-1 (thyroid, adherent) | 0.907 | < 5.59 | 0.982 | < 5.30 |
| DBTRG-05MG (glioma, adherent) | 0.963 | < 5.59 | 0.941 | < 5.30 |
| HCC1954 (breast, adherent) | 0.875 | < 5.59 | 0.956 | < 5.30 |

| Cell Line | AUC [1] | pIC50 [1] | AUC [2] | pIC50 [2] |
| --- | --- | --- | --- | --- |
| HDQ-P1 (breast, adherent) | 0.864 | < 5.59 | 0.972 | < 5.30 |
| SW1463 (large intestine, adherent) | 0.974 | < 5.59 | 0.976 | < 5.30 |
| NCI-H1793 (lung adenocarcinoma, adherent) | 0.971 | < 5.59 | 0.982 | < 5.30 |
| HeLa (cervix, adherent) | 0.986 | < 5.59 | 0.987 | < 5.30 |
| Hs940-T (melanoma, adherent) | 0.896 | < 5.59 | 0.959 | < 5.30 |
| H3255 (lung adenocarcinoma, adherent) | 0.937 | < 5.59 | 0.938 | < 5.30 |
| SW1417 (large intestine, adherent) | 0.975 | < 5.59 | 0.902 | < 5.30 |
| NCI-H2110 (non-small cell lung carcinoma, adherent) | 0.952 | < 5.59 | 0.986 | < 5.30 |
| PANC-08-13 (pancreas, adherent) | 0.978 | < 5.59 | 0.86 | < 5.30 |
| KYSE-450 (oesophagus, adherent) | 0.826 | 5.84 | 0.981 | < 5.30 |
| SK-N-AS (neuroblastoma, adherent) | 0.978 | < 5.59 | 0.98 | < 5.30 |
| JHU-022 (head and neck, adherent) | 0.962 | < 5.59 | 0.97 | < 5.30 |
| LCLC-103H (large cell lung carcinoma, adherent) | 0.74 | 6.14 | 0.991 | < 5.30 |
| DMS-273 (small cell lung carcinoma, adherent) | 0.976 | < 5.59 | 0.985 | < 5.30 |
| A427 (non-small cell lung carcinoma, adherent) | 0.913 | < 5.59 | 0.985 | < 5.30 |
| NCI-H1568 (lung adenocarcinoma, adherent) | 0.688 | 6.21 | 0.979 | < 5.30 |
| EHEB (lymphoid neoplasm, suspension) | 0.805 | 5.68 | 0.954 | < 5.30 |
| TT (thyroid, adherent) | 0.978 | < 5.59 | 0.97 | < 5.30 |
| KYSE-50 (oesophagus, adherent) | 0.99 | < 5.59 | 0.986 | < 5.30 |
| NCI-H1915 (large cell lung carcinoma, adherent) | 0.978 | < 5.59 | 0.988 | < 5.30 |
| NCI-H1993 (lung adenocarcinoma, adherent) | 0.98 | < 5.59 | 0.948 | < 5.30 |
| KU-19-19 (bladder, adherent) | 0.985 | < 5.59 | 0.971 | < 5.30 |

pIC50: −log10 of the molar value. A lower IC50 marks a more sensitive line; where the fit passes the top or lowest dose, that dose stands as a limit. AUC is the area under the same curve over the 256-fold range up to the top dose, as a fraction: 1 means no effect, lower means more sensitive. For some of these results: Any top dose called inferred was derived from the fitted curves, not read from the paper. For some of these results: An entry number marks a drug with two screens in the source, which often give different values.
